# Results published in the supplement of paper PMC5919970.
# Structures can show the parent of a compound that is named as a salt. Over roughly 2,000 compounds, “fractional viability relative to vehicle” has its median near 0.91; the lowest 2% begin near 0.045. The list shows a part of the results.
# System: TYKNU
# Experiment: fractional viability relative to vehicle; TYKNU is a high-grade serous ovarian cancer line; higher = less growth inhibition
# Conditions: 72 h
# Outline: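 Drug treatment lasted 72 h, with cells grown at 37 °C in 5% CO2 in RPMI 1640 supplemented with 10% FBS. Beforehand, TYKNU control cells or their lentiCRISPRv2 knockout derivatives had been seeded at 500 cells per well into drug-stamped 384-well plates carrying a ~2100-compound library at 2 or 10 μM, in duplicate. Viability came from Cell Titer Glo luminescence, with averaged duplicate treatment wells normalised to duplicate control wells in the same plate position.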
# [1] = 2uM, genotype: DNM1L knockout (sgDNM1L #1)
# [2] = 2uM, genotype: sgCTRLA1 (non-targeting control)
# [3] = 10uM, genotype: DNM1L knockout (sgDNM1L #1)
# [4] = 10uM, genotype: sgCTRLA1 (non-targeting control)
SMILES,fractional viability [1],fractional viability [2],fractional viability [3],fractional viability [4]
CC(C(=O)O)c1cccc(C(=O)c2ccccc2)c1 (stereo not given) [Ketoprofen],0.869,1.09,0.953,0.982
c1cc(-c2cnn3cc(-c4ccc(N5CCNCC5)cc4)cnc23)c2cccnc2c1,0.0431,0.069,0.0409,0.021
NCCCC[C@@H]1NC(=O)[C@@H](Cc2ccccc2)NC(=O)[C@H](CC(=O)O)NC(=O)CNC(=O)[C@H](CCCN=C(N)N)NC1=O [Cyclo (-RGDfK)],0.726,0.923,0.701,0.724
COc1cc(C(C)=O)ccc1OCCCN1CCC(c2noc3cc(F)ccc23)CC1 [Iloperidone],1.04,1.13,0.758,1.05
CCCC1O[C@@H]2C[C@H]3[C@@H]4CCC5=CC(=O)C=C[C@]5(C)[C@H]4[C@@H](O)C[C@]3(C)[C@]2(C(=O)CO)O1 (stereo not given in full) [Budesonide],1.14,1.14,1.01,1.17
CNC(=O)[C@@H](c1ccccc1)N1CCc2cc(OC)c(OC)cc2[C@@H]1CCc1ccc(C(F)(F)F)cc1 [Almorexant HCl],1.09,1.12,0.647,1.01
COc1ccc(/C=C\c2cc(OC)c(OC)c(OC)c2)cc1O [Combretastatin A4],0.11,0.122,0.111,0.073
C[C@H](Cc1cc2c(c(C(N)=O)c1)N(CCCO)CC2)NCCOc1ccccc1OCC(F)(F)F [Silodosin],0.929,1.18,0.899,0.934
CN(C)CCOc1ccc(-c2nc(-c3ccncc3)c(-c3ccc4c(c3)CC/C4=N\O)[nH]2)cc1,0.772,0.95,0.0217,0.0137
Cc1cc(Cl)ccc1OCCCC(=O)NO [Droxinostat],1.08,1.13,0.723,1.01
O=C(NCCN1CCOCC1)c1ccc(Cl)cc1,1.05,1.07,0.787,1.1
Cc1ccc(-n2sc(=O)n(Cc3ccc(F)cc3)c2=O)cc1,0.995,1.11,0.469,0.618
C/C(=C\C(=O)Nc1ccccc1C(=O)O)c1ccc2ccccc2c1,1.03,1.06,1,1.04
O=C(c1ccc(/C=C/c2n[nH]c3ccccc23)cc1)N1CCNCC1,0.869,0.903,0.737,0.5
CS(=O)(=O)c1ccc(-c2cnc(N)c(C(=O)Nc3ccccc3)n2)cc1,0.677,0.789,0.333,0.272
COc1c(C)c2c(c(O)c1C/C=C(\C)CCC(=O)O)C(=O)OC2 [Mycophenolic acid],0.407,0.461,0.258,0.232
O=C(Oc1ccccc1C(=O)O)c1ccccc1O [Sasapyrine],0.879,0.984,0.773,1.21
C[C@H]1O[C@@H](n2cc(F)c(=O)[nH]c2=O)[C@H](O)[C@@H]1O [Doxifluridine],1.11,1.13,0.893,1.06
CC(C)(C)c1nc(-c2cccc(NS(=O)(=O)c3c(F)cccc3F)c2F)c(-c2ccnc(N)n2)s1,0.452,0.476,0.404,0.565
CC1(C)CC[C@]2(C(=O)O)CC[C@]3(C)C(=CC[C@@H]4[C@@]5(C)CC[C@H](O)C(C)(C)[C@@H]5CC[C@]43C)[C@@H]2C1 [Oleanolic Acid],0.911,1.06,0.804,0.985
O=C(O)CCCCC(CCSCc1ccccc1)SCc1ccccc1 (stereo not given),1.07,1.19,0.942,1.07
O=c1c(-c2ccc(O)cc2)coc2cc(O)ccc12 [Daidzein],0.874,1.07,0.676,0.929
COc1cccc(Nc2c(C(N)=O)cnc3c(C)cc(S(=O)(=O)c4cccc(C(=O)N(C)C)c4)cc23)c1,0.711,0.988,0.585,0.958
Nc1c(CC(=O)O)cccc1C(=O)c1ccc(Br)cc1 [Bromfenac Sodium],0.888,1.1,0.801,1.05
CC1(C)O[C@@H]2C[C@H]3[C@@H]4CCC5=CC(=O)CC[C@]5(C)[C@@]4(F)[C@@H](O)C[C@]3(C)[C@]2(C(=O)CCl)O1 [Halcinonide],1.29,1.16,0.807,1.04
C[C@]12C=CC(=O)C=C1CC[C@H]1[C@@H]3C[C@@H](O)[C@](O)(C(=O)CO)[C@@]3(C)C[C@H](O)[C@@]12F [Triamcinolone],1.2,1.09,1.16,1.07
N#Cc1ccc(COC[C@H]2O[C@@H](n3c(NCc4ccc(Cl)c(Cl)c4)nc4c(N)ncnc43)[C@H](O)[C@@H]2O)cc1,0.566,0.64,0.194,0.109
CCN(CC)C(=O)/C(C#N)=C/c1cc(O)c(O)c([N+](=O)[O-])c1 [Entacapone],1.07,1.06,1.25,1.25

SMILES,fractional viability [1],fractional viability [2],fractional viability [3],fractional viability [4]
C[C@@H]1O[C@@H](OC[C@H]2O[C@@H](Oc3c(-c4ccc(OCCO)c(OCCO)c4)oc4cc(OCCO)cc(O)c4c3=O)[C@H](O)[C@@H](O)[C@@H]2O)[C@H](O)[C@H](O)[C@H]1O [Troxerutin],1.01,1.05,1.11,1.12
Cn1nnc(-c2ccc3c(c2)[nH]c2nc(Cc4ccccc4)nc(NC4CCC(N)CC4)c23)n1 (stereo not given),0.533,0.384,0.908,0.842
C[C@@H](O)[C@H]1C(=O)N2C(C(=O)O)=C(S[C@@H]3CN[C@H](C(=O)N(C)C)C3)[C@H](C)[C@H]12 [Meropenem],1.05,1.18,0.984,1.03
CC(=O)O[C@H]1C[C@@H]2CC[C@@H]3[C@H](CC[C@@]4(C)[C@H]3C[C@H]([N+]3(C)CCCCC3)[C@@H]4OC(C)=O)[C@@]2(C)C[C@@H]1N1CCCCC1 [Vecuronium Bromide],0.904,1.14,1.06,1.22
CN(C)Cc1cccc(N=C(c2ccccc2)c2c(O)[nH]c3cc(C(=O)N(C)C)ccc23)c1,1.01,0.843,0.588,0.574
OC(c1cc(C(F)(F)F)nc2c(C(F)(F)F)cccc12)C1CCCCN1 (stereo not given) [Mefloquine HCl],0.689,0.956,0.0537,0.0619
COc1ccc2c(c1)c(CC(=O)N1CCOCC1)c(C)n2C(=O)c1ccc(Cl)cc1,1.12,1.17,0.737,1.05
Cc1coc2c1C(=O)C(=O)c1c-2ccc2c1CCCC2(C)C [Tanshinone IIA],0.482,0.551,0.196,0.163
CCc1c(O)cc(O)c(C(=O)c2ccc(OCCN3CCOCC3)c(OC)c2)c1CC(=O)N(CCOC)CCOC,0.368,0.443,0.232,0.202
CNCCCC12CCC(c3ccccc31)c1ccccc12 [Maprotiline HCl],0.982,1.09,0.652,0.905
CC[C@H]1OC(=O)C[C@@H](O)[C@H](C)[C@@H](O[C@@H]2O[C@H](C)[C@@H](O)[C@H](N(C)C)[C@H]2O)[C@@H](CCN2C[C@H](C)C[C@H](C)C2)C[C@@H](C)C(=O)/C=C/C(C)=C/[C@@H]1CO[C@@H]1O[C@H](C)[C@@H](O)[C@@H](OC)[C@H]1OC [Tilmicosin],2.22,1.13,1.49,1.11
CC(=O)N[C@@H](CS)C(=O)O [Acetylcysteine],0.998,1.15,1,1.01
C[C@]1(c2nc3c(C(N)=O)cccc3[nH]2)CCCN1 [Veliparib (ABT-888)],0.94,0.993,0.951,1.06
O=C(O)Cc1cccc(OCCCN(Cc2cccc(C(F)(F)F)c2Cl)CC(c2ccccc2)c2ccccc2)c1,1.01,1.05,0.68,0.93
O=c1cc(-c2ccccc2)oc2cc(O)c(O)c(O)c12 [Baicalein],0.792,1.13,0.79,0.923
COc1cc(C2Oc3cc([C@H]4Oc5cc(O)cc(O)c5C(=O)[C@@H]4O)ccc3OC2CO)ccc1O (stereo not given in full) [Silymarin],0.966,1.09,0.874,1.09
COc1cc(C2Oc3cc([C@H]4Oc5cc(O)cc(O)c5C(=O)[C@@H]4O)ccc3OC2CO)ccc1O (stereo not given in full) [Silibinin],1.05,1.19,1.1,1.17
CCN(CC)CCOC(=O)c1ccc(N)cc1 [Procaine HCl],1.05,1.02,0.83,1.03
Clc1ccc(C(Cn2ccnc2)OCc2ccc(Sc3ccccc3)cc2)c(Cl)c1 (stereo not given) [Fenticonazole Nitrate],0.85,1,0.655,0.844
CC[C@H](C)C(=O)O[C@H]1C[C@@H](C)C=C2C=C[C@H](C)[C@H](CC[C@@H]3C[C@@H](O)CC(=O)O3)[C@H]21 [Lovastatin],0.56,0.759,0.314,0.316
COc1cccc2cc(-c3nc([C@H]4CC[C@H](C(=O)O)CC4)n4ncnc(N)c34)[nH]c12,0.38,0.519,0.186,0.233
O=C1CCC[C@@H]2[C@H]3CCC[N+]4([O-])CCC[C@@H](CN12)[C@@H]34 (stereo not given in full) [Oxymatrine],0.927,1.15,0.812,1.1
CC(C)n1c(/C=C/C(O)CC(O)CC(=O)O)c(-c2ccc(F)cc2)c2ccccc21 (stereo not given) [Fluvastatin Sodium],0.528,0.48,0.229,0.311
O=c1ccn([C@@H]2O[C@H](CO)[C@@H](O)[C@H]2O)c(=O)[nH]1 [Uridine],1.01,1.04,1.08,1.09
CCCCNc1cc(C(=O)O)cc(S(N)(=O)=O)c1Oc1ccccc1 [Bumetanide],0.935,1.12,0.918,1.09
C[C@H](Cn1cnc2c(N)ncnc21)OCP(=O)(O)O [Tenofovir],1.25,1.15,1.18,1.18
COC(=O)N[C@H](C(=O)N[C@@H](Cc1ccccc1)[C@@H](O)CN(Cc1ccc(-c2ccccn2)cc1)NC(=O)[C@@H](NC(=O)OC)C(C)(C)C)C(C)(C)C [Atazanavir Sulfate],0.914,1.08,0.914,1.06
